Here are results for five molecules from paper PMC6362269.

Changes are numbered by the printed parent chain. Numbers in names are those of the source. No constants are given. Whether binding was seen depends on the method and setting. For part of these data: In cells and extracts the contact can be indirect. Some entries that bind do so weakly or less than the wild type. For part of these data: Tags and fused reporters may be left off the sequences shown.

Assay [1] has as its target T1, Tim40/Mia40 (wild type, in yeast mitochondria) (S. cerevisiae (endogenous in yeast mitochondria)) (UniProt P36046).
T1 sequence: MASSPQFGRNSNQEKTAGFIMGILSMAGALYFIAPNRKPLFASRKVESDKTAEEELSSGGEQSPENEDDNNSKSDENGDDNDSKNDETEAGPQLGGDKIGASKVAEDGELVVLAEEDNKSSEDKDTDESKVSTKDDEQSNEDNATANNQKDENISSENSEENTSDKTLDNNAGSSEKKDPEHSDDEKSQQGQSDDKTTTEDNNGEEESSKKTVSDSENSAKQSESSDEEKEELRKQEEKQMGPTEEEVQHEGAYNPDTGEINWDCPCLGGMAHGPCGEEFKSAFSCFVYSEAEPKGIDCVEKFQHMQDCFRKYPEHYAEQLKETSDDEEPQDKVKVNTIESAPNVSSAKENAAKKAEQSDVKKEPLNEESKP
The assay can be described thus: mixed-disulfide conjugate on non-reducing SDS-PAGE; radiolabeled Mic19 variants imported into isolated yeast mitochondria at 25 °C; treated with 50 μg/ml PK and 50 mM IAA; SDS-PAGE with 5 M urea without β-mercaptoethanol; radioimaging; 75 kD Mic19-Tim40 conjugate.

The target of assay [2] is T2, Tim40-FLAG (S. cerevisiae) (UniProt P36046).
T2 sequence: T1 sequence
The experiment in a line: co-IP; radiolabeled Mic19C146S imported for 20 min at 25 °C into mitochondria with Tim40-FLAG; 50 mM IAA; solubilized with 1% digitonin (20 mM Tris-HCl pH 7.4, 150 mM NaCl); anti-FLAG M2-agarose, 2 h at 4 °C; non-reducing SDS-PAGE with 5 M urea; radioimaging.

The target of assay [3] is T3, cytosolic receptor domain of rat Tom20 (Tom20^sol-His) (Rattus norvegicus) (UniProt Q62760).
T3 sequence: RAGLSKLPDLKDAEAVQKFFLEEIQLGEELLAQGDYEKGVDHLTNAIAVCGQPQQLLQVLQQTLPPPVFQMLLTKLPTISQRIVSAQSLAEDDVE
The experiment in a line: pull-down; 0.5 µg Tom20^sol-His immobilised on Ni-NTA resin; mitochondria (1 mg protein) solubilized with 1% digitonin in 20 mM Tris-HCl pH 7.4, 300 mM NaCl, 10% glycerol; 14 h at 4 °C; washed with 50 mM imidazole; eluted with 500 mM imidazole; immunoblotting; only the target purified. On the technique in general: A western blot detects proteins with antibodies after separation by electrophoresis.

B1: Mic19C146S (radiolabeled) (protein, UniProt P43594 1-170)
chain: MGSNTSKVGAGAEKQQVYTPLTQIDFSQSLVSQLDSSKESDYVTKQNAEKFIEKKVSQRLSNLEVETLKKFEDTLNNSLLSDDDKDAVDGISSSSLNNQIESLNKKLTLFDQLELQKLEKYGGAKGKSDKKTDNGSISIKAKLTESLLANKGKPLNCYEEMEEFKKLVMG
modifications: [35S]-methionine label
With B1, the binding result in assay [1] and in assay [2] was “binds” in each case.

B2: Mic19WT-FLAG (protein, UniProt P43594 1-170)
chain: B1 chain with S146C
modifications: N-myristoylation at Gly2
For the molecule B2, the binding entry in assay [3] is reported as “binds”.

B3: Mic19C146S/C157S (radiolabeled) (protein, UniProt P43594 1-170)
chain: B1 chain with C157S
modifications: [35S]-methionine label
Turning to B3, the binding entry in assay [1] is given as “no binding”.

B4: Mic19C157S (radiolabeled) (protein, UniProt P43594 1-170)
chain: B1 chain with S146C, C157S
modifications: [35S]-methionine label
B4: in assay [1], the binding entry is “no binding”.

B5: wild-type Mic19 (radiolabeled) (protein, UniProt P43594 1-170)
chain: B1 chain with S146C
modifications: N-myristoylation at Gly2 (in reticulocyte lysate); [35S]-methionine label
As for B5, the binding result in assay [1] is listed as “binds weakly”.
